Measurements reported in publication PMC9723945.
No constants are given. Whether binding was seen depends on the method and setting. In cells and extracts the contact can be indirect. Where a sequence is shown, tags or fusion partners need not be part of it.

Target: T1, HA-ATP11A (phosphatidylserine flippase ATP11A) (human) (UniProt P98196)
T1 sequence: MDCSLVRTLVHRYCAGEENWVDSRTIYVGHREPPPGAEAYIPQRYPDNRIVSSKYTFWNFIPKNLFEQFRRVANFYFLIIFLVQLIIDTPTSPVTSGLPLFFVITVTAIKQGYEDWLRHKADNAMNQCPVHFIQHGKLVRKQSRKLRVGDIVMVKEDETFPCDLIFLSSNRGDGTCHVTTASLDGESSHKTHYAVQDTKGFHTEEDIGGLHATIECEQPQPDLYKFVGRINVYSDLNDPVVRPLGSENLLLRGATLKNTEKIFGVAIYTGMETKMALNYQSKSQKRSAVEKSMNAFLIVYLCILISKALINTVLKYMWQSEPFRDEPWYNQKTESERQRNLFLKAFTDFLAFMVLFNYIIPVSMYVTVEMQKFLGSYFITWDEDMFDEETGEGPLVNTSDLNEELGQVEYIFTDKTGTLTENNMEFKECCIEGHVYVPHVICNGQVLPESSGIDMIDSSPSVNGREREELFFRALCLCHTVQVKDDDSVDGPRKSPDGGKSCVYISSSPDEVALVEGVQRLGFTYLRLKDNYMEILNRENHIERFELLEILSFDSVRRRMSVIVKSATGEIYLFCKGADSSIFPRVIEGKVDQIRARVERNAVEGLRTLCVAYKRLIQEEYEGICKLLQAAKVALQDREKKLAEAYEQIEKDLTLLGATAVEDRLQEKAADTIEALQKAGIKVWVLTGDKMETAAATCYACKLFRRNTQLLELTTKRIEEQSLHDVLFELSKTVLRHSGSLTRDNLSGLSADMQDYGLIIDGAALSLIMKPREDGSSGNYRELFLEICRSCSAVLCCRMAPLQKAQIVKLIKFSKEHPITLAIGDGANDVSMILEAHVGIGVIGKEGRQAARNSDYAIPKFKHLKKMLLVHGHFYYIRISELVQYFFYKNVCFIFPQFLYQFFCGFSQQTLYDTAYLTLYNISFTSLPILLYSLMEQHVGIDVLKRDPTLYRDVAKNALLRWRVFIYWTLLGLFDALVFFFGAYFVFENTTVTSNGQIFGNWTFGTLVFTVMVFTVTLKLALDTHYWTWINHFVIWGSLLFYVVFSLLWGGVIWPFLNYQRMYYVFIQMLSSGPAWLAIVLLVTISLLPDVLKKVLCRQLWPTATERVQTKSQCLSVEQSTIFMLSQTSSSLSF
Assay: co-IP; HEK293T cells co-transfected, 48 h; solubilised in 150 mM NaCl, 25 mM Hepes pH 7.2, 1 mM EDTA, 1% Triton X-100 overnight at 4 °C; anti-HA or anti-Myc agarose beads overnight at 4 °C, washed 3x; Western blot; B1FL with B1ΔCT tested without and with coexpressed ATP11A

- binding: no binding
B1: B1ΔNT (927-1584) (domain or fragment, UniProt O14514 927-1584)
chain: STFAILAQLSADANMEKATLPSVTLIVGCGVSSLTLLMLVIIYVSVWRYIRSERSVILINFCLSIISSNALILIGQTQTRNKVVCTLVAAFLHFFFLSSFCWVLTEAWQSYMAVTGHLRNRLIRKRFLCLGWGLPALVVAISVGFTKAKGYSTMNYCWLSLEGGLLYAFVGPAAAVVLVNMVIGILVFNKLVSKDGITDKKLKERAGASLWSSCVVLPLLALTWMSAVLAVTDRRSALFQILFAVFDSLEGFVIVMVHCILRREVQDAVKCRVVDRQEEGNGDSGGSFQNGHAQLMTDFEKDVDLACRSVLNKDIAACRTATITGTLKRPSLPEEEKLKLAHAKGPPTNFNSLPANVSKLHLHGSPRYPGGPLPDFPNHSLTLKRDKAPKSSFVGDGDIFKKLDSELSRAQEKALDTSYVILPTATATLRPKPKEEPKYSIHIDQMPQTRLIHLSTAPEASLPARSPPSRQPPSGGPPEAPPAQPPPPPPPPPPPPQQPLPPPPNLEPAPPSLGDPGEPAAHPGPSTGPSTKNENVATLSVSSLERRKSRYAELDFEKIMHTRKRHQDMFQDLNRKLQHAAEKDKEVLGPDSKPEKQQTPNKRPWESLRKAHGTPTWVKKELEPLQPSPLELRSVEWERSGATIPLVGQDIIDLQTEV
